Results: the supplement of paper PMC4495339
Some of the results follow. Reporter virus signal in Vero cells at 10 µM drug, 24 h, as % of DMSO wells; lower = more inhibition (cell loss is not separated). No active / inactive call. One pass, one plate of the library.

These molecules were tested on Rift Valley fever virus MP-12 vaccine strain (luciferase reporter) in Vero cells (assay: reporter virus infection (Renilla luciferase) relative to DMSO control (% of DMSO); higher = less inhibition of virus replication). Conditions: 10 µM; time (h post infection): 24.
Description: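 Vero cells were pretreated for 1 h with 10 µM drug and kept in drug after infection with the reporter virus; luciferase at 24 h as % of DMSO wells. One pass, one plate of the library.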
In the case of `CC(=O)[C@H]1CC[C@H]2[C@@H]3CCC4=CC(=O)CC[C@]4(C)[C@H]3CC[C@]12C` [Progesterone (Prometrium)], the reporter virus infection is reported as 90.6.
For `CCN(CC)C(=S)SSC(=S)N(CC)CC` [Disulfiram (Antabuse)], the reporter virus infection was 85.8.
`C[C@H]1C[C@H]2[C@@H]3CCC4=CC(=O)C=C[C@]4(C)[C@H]3C(=O)C[C@]2(C)[C@@]1(O)C(=O)CO` [Betapar (Meprednisone)] gave a reporter virus infection of 101.
`CC1=C(/C=C/C(C)=C/C=C/C(C)=C/C(=O)O)C(C)(C)CCC1` [Tretinoin (Aberela)] was tested, and the reporter virus infection was 88.4.
Work on `CC1Cc2ccccc2N1NC(=O)c1ccc(Cl)c(S(N)(=O)=O)c1` (stereo not drawn) [Indapamide (Lozol)] yielded a reporter virus infection of 66.4.
For `Cc1nc2n(c(=O)c1CCN1CCC(c3noc4cc(F)ccc34)CC1)CCCC2O` (stereo not drawn) [Paliperidone (Invega)], the reporter virus infection was 102.
Work on `CC(C)Cc1ccc(C(C)C(=O)O)cc1` (stereo not drawn) [Ibuprofen (Advil)] yielded a reporter virus infection of 84.6.
`Nc1nc2ccc(OC(F)(F)F)cc2s1` [Riluzole (Rilutek)] was tested, and the reporter virus infection was 67.4.
With `Nc1ncnc2c1ncn2[C@@H]1O[C@H](CO)[C@@H](O)[C@H]1O` [Adenosine (Adenocard)] the reporter virus infection was 78.9.
Work on `COc1cc(/C=C/C(=O)CC(=O)/C=C/c2ccc(O)c(OC)c2)ccc1O` [Curcumin] yielded a reporter virus infection of 56.3.
In the case of `C[C@]12CCC(=O)C=C1CC[C@@H]1[C@@H]2[C@@H](O)C[C@@]2(C)[C@H]1CC[C@]2(O)C(=O)CO` [Hydrocortisone (Cortisol)], the reporter virus infection is reported as 89.6.
`Cc1cn([C@@H]2C[C@@H](O)[C@H](CO)O2)c(=O)[nH]c1=O` [Telbivudine (Sebivo, Tyzeka)] showed a reporter virus infection of 76.
Molecule `CCOC(=O)O[C@]1(C(=O)OCCl)CC[C@H]2[C@@H]3CCC4=CC(=O)C=C[C@]4(C)[C@H]3[C@@H](O)C[C@@]21C` [Loteprednol etabonate] has a reporter virus infection of 46.2.
`NC(=O)N1c2ccccc2C=Cc2ccccc21` [Carbamazepine (Carbatrol)] gave a reporter virus infection of 88.3.
Molecule `NS(=O)(=O)c1cc2c(cc1Cl)N=CNS2(=O)=O` [Chlorothiazide] has a reporter virus infection of 94.8.
Work on `C#C[C@]1(O)CC[C@H]2[C@@H]3CCC4=CC(=O)CC[C@@H]4[C@H]3CC[C@@]21CC` [Levonorgestrel (Levonelle)] yielded a reporter virus infection of 105.
With `CC(=O)Oc1ccccc1C(=O)Nc1ncc([N+](=O)[O-])s1` [Nitazoxanide (Alinia, Annita)] the reporter virus infection was 26.5.
`C[C@H](N[C@@H](CCc1ccccc1)C(=O)O)C(=O)N1CCC[C@H]1C(=O)O` [Enalaprilat dihydrate] gave a reporter virus infection of 79.
For `CN1C(C(=O)Nc2ccccn2)=C(O)c2ccccc2S1(=O)=O` [Piroxicam (Feldene)], the reporter virus infection was 100.
`Cc1nc2n(c(=O)c1CCN1CCC(c3noc4cc(F)ccc34)CC1)CCCC2` [Risperidone (Risperdal)] gave a reporter virus infection of 66.1.
`CN(C)CCc1c[nH]c2ccc(Cn3cncn3)cc12` [Rizatriptan Benzoate (Maxalt)] was tested, and the reporter virus infection was 73.9.
`C[C@]12CC[C@@H]3c4ccc(O)cc4CC[C@H]3[C@@H]1CCC2=O` [Estrone] showed a reporter virus infection of 84.
For `Nc1ccc(S(N)(=O)=O)cc1` [Sulfanilamide], the reporter virus infection was 79.5.
`O=c1[nH]cnc2[nH]ncc12` [Allopurinol Sodium (Aloprim)] gave a reporter virus infection of 89.7.
Work on `CCCC(CCC)C(=O)O` [Divalproex sodium] yielded a reporter virus infection of 107.
For `O=C(N[C@H](CO)[C@H](O)c1ccc([N+](=O)[O-])cc1)C(Cl)Cl` [Chloramphenicol (Chloromycetin)], the reporter virus infection was 73.3.
`Cc1ccc(C)c(OCCCC(C)(C)C(=O)O)c1` [Gemfibrozil (Lopid)] gave a reporter virus infection of 100.
`C=CC1=C(C(=O)O)N2C(=O)[C@@H](NC(=O)/C(=N\O)c3csc(N)n3)[C@H]2SC1` [Cefdinir (Omnicef)] was tested, and the reporter virus infection was 46.8.
`O=C1[C@H](CC[C@H](O)c2ccc(F)cc2)[C@@H](c2ccc(O)cc2)N1c1ccc(F)cc1` [Ezetimibe (Zetia)] was tested, and the reporter virus infection was 91.8.
With `C#C[C@]1(O)CC[C@H]2[C@@H]3CCc4cc(O)ccc4[C@H]3CC[C@@]21C` [Ethinyl Estradiol] the reporter virus infection was 68.3.
`CN(C/C=C/C#CC(C)(C)C)Cc1cccc2ccccc12` [Terbinafine (Lamisil, Terbinex)] was tested, and the reporter virus infection was 82.8.
For `N[C@@H](Cc1ccc(O)c(O)c1)C(=O)O` [Levodopa (Sinemet)], the reporter virus infection was 93.2.
Work on `CC[C@H]1OC(=O)[C@H](C)[C@@H](O[C@H]2C[C@@](C)(OC)[C@@H](O)[C@H](C)O2)[C@H](C)[C@@H](O[C@@H]2O[C@H](C)C[C@H](N(C)C)[C@H]2O)[C@](C)(O)C[C@@H](C)C(=O)[C@H](C)[C@@H](O)[C@]1(C)O` [Erythromycin (E-Mycin)] yielded a reporter virus infection of 78.5.
`Cn1ccnc1S` [Methimazole (Tapazole, Northyx)] was tested, and the reporter virus infection was 68.4.
`O=c1[nH]cnc2c1ncn2[C@H]1CC[C@@H](CO)O1` [Didanosine (Videx)] showed a reporter virus infection of 79.4.
`NS(=O)(=O)c1cc2c(cc1Cl)NCNS2(=O)=O` [Hydrochlorothiazide] was tested, and the reporter virus infection was 101.
`CCCCCCCCCCC[C@@H](C[C@@H]1OC(=O)[C@H]1CCCCCC)OC(=O)[C@H](CC(C)C)NC=O` [Orlistat (Alli, Xenical)] gave a reporter virus infection of 82.4.
`NCCCC(O)(P(=O)(O)O)P(=O)(O)O` [Alendronate (Fosamax)] was tested, and the reporter virus infection was 74.5.
